Reference: ChEMBL document CHEMBL1201862, “PubChem BioAssay data set” (2004)
Counter-ions that a name gives are not always drawn.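 The compound was tested at five concentrations on cells cultured in 96-well plates, with a 48-hour exposure period. At the GI50, growth is halved.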 Active and inactive are the calls of the source. Cut-off read from the data, not from the text of the source: active = GI50 up to about 1.1 µM and inactive = higher.

Each molecule was assayed on NCI-H322M (assay: DTP human tumour cell line panel, 48 h).
In the case of `COc1ccc([C@@]23Oc4cc(OC)cc(OC)c4[C@]2(O)[C@H](O)[C@H](C(N)=O)[C@H]3c2ccccc2)cc1` [DIDESMETHYLROCAGLAMIDE], the GI50 is reported as active: < 0.01 µM.
`C[C@]12CC[C@H](O)C[C@H]1CC[C@@H]1[C@@H]2CC[C@]2(C)[C@@H](C3=CC(=O)OC3)CC[C@]12O` [DIGITOXIGENIN] was tested, and the GI50 was active: 0.169 µM.
In the case of `O=C1c2ccc(O)cc2OC(c2cc(O)c(O)c(O)c2)C1O` (configuration not stated) [DIHYDROBINETIN], the GI50 is reported as inactive: > 100 µM.
For `O=C1CCc2ccccc2O1` [DIHYDROCOUMARIN], the GI50 was inactive: > 100 µM.
With `COc1cc([C@H]2Oc3c(OC)cc(CCCO)cc3[C@@H]2CO)ccc1O` [DIHYDRODEHYDRODICONIFERY ALCOHOL] the GI50 was inactive: > 100 µM.
`CN(C)CCCN1c2ccccc2C(C)(C)c2ccccc21` [DIMETACRINE] was tested, and the GI50 was inactive: 15.3 µM.
In the case of `CCN(CC)C(=S)S` [DITIOCARB SODIUM], the GI50 is reported as inactive: > 100 µM.
`NC(Cc1ccccc1)C(=O)O` (stereo not drawn) [DL-PHENYLALANINE] was tested, and the GI50 was inactive: > 100 µM.
With `NC(Cc1c[nH]c2ccccc12)C(=O)O` (stereo not drawn) [DL-TRYPTOPHAN] the GI50 was inactive: > 300 µM.
In the case of `CC(=O)O[C@@]12CO[C@@H]1C[C@H](O)[C@@]1(C)C(=O)[C@H](O)C3=C(C)[C@@H](OC(=O)[C@H](O)[C@@H](NC(=O)OC(C)(C)C)c4ccccc4)C[C@@](O)([C@@H](OC(=O)c4ccccc4)[C@H]21)C3(C)C` [DOCETAXEL], the GI50 is reported as active: 0.01 µM.
`O=c1[nH]c2ccccc2n1CCCN1CCC(n2c(=O)[nH]c3cc(Cl)ccc32)CC1` [DOMPERIDONE] was tested, and the GI50 was inactive: 18.1 µM.
With `CC(C)(C)c1cc(O)ccc1O` [E319] the GI50 was inactive: > 100 µM.
With `Clc1ccc(COC(Cn2ccnc2)c2ccc(Cl)cc2Cl)cc1` (configuration not stated) [ECONAZOLE NITRATE] the GI50 was inactive: 12.9 µM.
In the case of `Clc1ccc(COC(Cn2ccnc2)c2ccc(Cl)cc2Cl)cc1` (configuration not stated) [ECONAZOLE], the GI50 is reported as inactive: 12.6 µM.
In the case of `C=C(C)C(=O)O[C@H]1CC2=C[C@@H](C[C@@]3(C)O[C@@H]3[C@H]3OC(=O)C(=C)[C@@H]31)OC2=O` [ELEPHANTOPIN], the GI50 is reported as inactive: 1.91 µM.
For `CC(C)=C[C@@H]1C[C@H](C)c2c(O)cc(C)c3c2C1=C(C)C(=O)C3=O` [ELISABATIN A], the GI50 was inactive: 12.9 µM.
For `O=c1oc2c(O)c(O)cc3c(=O)oc4c(O)c(O)cc1c4c23` [ELLAGIC ACID], the GI50 was inactive: 49.1 µM.
With `Cc1c2ccncc2c(C)c2c1[nH]c1ccccc12` [ELLIPTECINE] the GI50 was active: 0.294 µM.
For `C[C@]12CC[C@@H]3c4ccc(OS(N)(=O)=O)cc4CC[C@H]3[C@@H]1CCC2=O` [EMATE], the GI50 was inactive: 98.2 µM.
For `CC(C)S(=O)(=O)n1c(N)nc2ccc(/C(=N/O)c3ccccc3)cc21` [ENVIROXIME], the GI50 was inactive: 21.3 µM.
`C/C(=C\c1csc(C)n1)[C@@H]1C[C@@H]2O[C@@H]2CCC[C@H](C)[C@H](O)[C@@H](C)C(=O)C(C)(C)[C@@H](O)CC(=O)O1` [EPOTHILONE A] was tested, and the GI50 was active: < 0.0001 µM.
In the case of `C/C1=C/C[C@@H](/C(C)=C/c2csc(C)n2)OC(=O)C[C@H](O)C(C)(C)C(=O)[C@H](C)[C@@H](O)[C@@H](C)CCC1` [EPOTHILONE D], the GI50 is reported as active: < 0.0001 µM.
In the case of `O=C1C(CO)=C[C@@H](O)[C@H]2O[C@@H]12` [EPOXYDON], the GI50 is reported as inactive: > 100 µM.
For `C=C1CC[C@H]2C(C)=CC[C@H]3C(=C)C(=O)O[C@@H]3[C@@H]12` [EREMANTHIN], the GI50 was inactive: > 100 µM.
In the case of `CN1C[C@H](C(=O)N[C@]2(C)O[C@@]3(O)[C@@H]4CCCN4C(=O)[C@H](Cc4ccccc4)N3C2=O)C=C2c3cccc4[nH]cc(c34)C[C@H]21` [ERGOTAMINE TARTRATE], the GI50 is reported as inactive: 38.9 µM.
In the case of `O=S(=O)(O)c1cc(O)c(/N=N/c2ccc3ccccc3c2O)c2ccccc12` [ERIOCHROME BLUE BLACK B], the GI50 is reported as inactive: 27.9 µM.
With `C#Cc1cccc(Nc2ncnc3cc(OCCOC)c(OCCOC)cc23)c1` [ERLOTINIB HYDROCHLORIDE] the GI50 was active: 0.0143 µM.
In the case of `COc1ccc(-c2oc3cc(O)cc(O)c3c(=O)c2OC)cc1` [ERMANIN], the GI50 is reported as inactive: 33.5 µM.
`O=c1ccc2cc(O)c(O)cc2o1` [ESCULETIN] was tested, and the GI50 was inactive: > 100 µM.
With `C[C@]12CC[C@@H]3c4ccc(OC(=O)N(CCCl)CCCl)cc4CC[C@H]3[C@@H]1CC[C@@H]2O` [ESTRAMUSTINE] the GI50 was active: 0.025 µM.
In the case of `C=CCC1(CC)C(=O)NC(=O)NC1=O` [ETALLOBARBITAL], the GI50 is reported as inactive: > 100 µM.
For `C=C(CC)C(=O)c1ccc(OCC(=O)O)c(Cl)c1Cl` [ETHACRYNIC ACID], the GI50 was inactive: 33 µM.
`C#C[C@]1(O)CC[C@H]2[C@@H]3CCc4cc(O)ccc4[C@H]3CC[C@@]21C` [ETHINYL ESTRADIOL] was tested, and the GI50 was inactive: 90.2 µM.
With `CCOC(=O)c1ccc(O)cc1` [ETHYLPARABEN] the GI50 was inactive: > 100 µM.
For `CC12CCC(CC1)C(C)(C)O2` [EUCALYPTOL], the GI50 was inactive: 28.1 µM.
With `C=C1C(=O)O[C@H]2[C@H]1[C@H](OC(=O)/C(C)=C\C)C[C@]1(CO1)[C@@H]1[C@H](OC(C)=O)C=C(C)[C@]21O` [EUPAROTIN ACETATE] the GI50 was inactive: > 72.3 µM.
With `COc1cc2c(ccc3c4cc(OC)c(OC)cc4c[n+](C)c23)cc1O` [FAGARONINE] the GI50 was inactive: 7.43 µM.
For `COc1ccc2cc1Oc1ccc(cc1)C[C@H]1c3cc(c(OC)cc3CCN1C)Oc1c(O)c(OC)cc3c1[C@H](C2)N(C)CC3` [FANGCHINOLINE], the GI50 was inactive: 36.5 µM.
For `COc1cc(/C=C/C(=O)O)ccc1O` [FERULATE], the GI50 was inactive: > 100 µM.
`O=c1[nH]c(=O)n([C@@H]2O[C@H](CO)[C@@H](O)[C@@H]2F)cc1I` [FIALURIDINE] was tested, and the GI50 was inactive: > 100 µM.
For `O=c1oc2c(O)c(O)c(O)c3c(=O)oc4c(O)c(O)cc1c4c23` [FLAVELLAGIC ACID], the GI50 was inactive: > 100 µM.
In the case of `COc1cc(O)c(C(=O)/C=C/c2ccccc2)c(OC)c1` [FLAVOKAWAIN B], the GI50 is reported as inactive: 5.16 µM.
With `CC1(C)O[C@@H]2C[C@H]3[C@@H]4C[C@H](F)C5=CC(=O)C=C[C@]5(C)[C@@]4(F)[C@@H](O)C[C@]3(C)[C@]2(C(=O)CO)O1` [FLUOCINOLONE ACETONIDE] the GI50 was inactive: > 100 µM.
With `Cc1[nH]c(=O)[nH]c(=O)c1N(CCF)CCCl` [FLUORODOPAN] the GI50 was inactive: 520 µM.
`O=C1C(Cl)=C(Cl)C(=O)N1c1ccc(F)cc1` [FLUOROIMIDE] was tested, and the GI50 was inactive: > 65.9 µM.
`CC(=O)O[C@]1(C(C)=O)CC[C@H]2[C@@H]3C[C@H](C)C4=CC(=O)C=C[C@]4(C)[C@@]3(F)[C@@H](O)C[C@@]21C` [FLUOROMETHOLONE ACETATE] was tested, and the GI50 was inactive: > 100 µM.
With `CC(=O)OCC(=O)[C@@]12OC(C)(C)O[C@@H]1C[C@H]1[C@@H]3CC(C=O)=C4C=C(OCCCl)CC[C@]4(C)[C@@]3(F)[C@@H](O)C[C@@]12C` [FORMOCORTAL] the GI50 was inactive: 21 µM.
`COc1ccc(-c2coc3cc(O)ccc3c2=O)cc1` [FORMONONETIN] was tested, and the GI50 was inactive: > 100 µM.
For `C[C@@](O)(/C=C/[C@H]1CC=CC(=O)O1)[C@@H](C[C@@H](O)\C=C/C=C\C=C\CO)OP(=O)(O)O` [FOSTRIECIN SODIUM], the GI50 was inactive: 3.56 µM.
`O=C1OC(CN2CCOCC2)CN1/N=C/c1ccc([N+](=O)[O-])o1` (configuration not stated) [FURALTADONE] was tested, and the GI50 was inactive: 36 µM.
`O=C1O[C@H]2[C@H](O)[C@@H](OC(=O)c3cc(O)c(O)c4c3[C@@H]3C1=CC(=O)C(O)(O)C3(O)O4)[C@H](OC(=O)c1cc(O)c(O)c(O)c1)O[C@@H]2CO` (some centres not stated) [FUROSIN] was tested, and the GI50 was inactive: 72.6 µM.
For `COC1=CC(=O)c2c(O)c3c(c(O)c2C1=O)CC(C)(O)OC3` (configuration not stated) [FUSARUBIN], the GI50 was inactive: 2.76 µM.
In the case of `COc1ccc2c3c1O[C@H]1C[C@@H](O)C=C[C@@]31CCN(C)C2` [GALANTAMINE], the GI50 is reported as inactive: > 80.9 µM.
With `Oc1cc(O)c2c(c1)O[C@H](c1cc(O)c(O)c(O)c1)[C@@H](O)C2` [GALLOCATECHIN] the GI50 was inactive: 54.1 µM.
`COc1ccc(-c2cc(=O)c3c(O)c(OC)c(OC)c(OC)c3o2)cc1` [GARDENIN B] was tested, and the GI50 was inactive: > 100 µM.
With `CN(C)c1ccc(C(=C2C=CC(=[N+](C)C)C=C2)c2ccc(N(C)C)cc2)cc1` [GENTIAN VIOLET] the GI50 was active: 0.387 µM.
`CC(C)=CCC/C(C)=C/CO` [GERANIOL] was tested, and the GI50 was inactive: > 100 µM.
`CCCCCC/C=C\CCCCCCCCCc1cccc(O)c1C(=O)O` [GINKGOLIC ACID 17:1] was tested, and the GI50 was inactive: > 100 µM.
`CC(C)=CCC[C@](C)(O)[C@H]1CC[C@]2(C)[C@@H]1[C@H](O)C[C@@H]1[C@@]3(C)CC[C@H](O[C@@H]4O[C@H](CO)[C@@H](O)[C@H](O)[C@H]4O)C(C)(C)[C@@H]3CC[C@]12C` [GINSENOSIDE RH2] was tested, and the GI50 was inactive: 19.5 µM.
For `C[C@]12CC[C@H](O)C[C@H]1CC[C@@H]1[C@@H]2CC[C@]2(C)[C@@H](C3=CC(=O)OC3)[C@@H](O)C[C@]12O` [GITOXIGENIN], the GI50 was inactive: 1.79 µM.
`C[C@H]1O[C@@H](O[C@H]2[C@@H](O)C[C@H](O[C@H]3[C@@H](O)C[C@H](O[C@H]4CC[C@@]5(C)[C@H](CC[C@@H]6[C@@H]5CC[C@]5(C)[C@@H](C7=CC(=O)OC7)[C@@H](O)C[C@]65O)C4)O[C@@H]3C)O[C@@H]2C)C[C@H](O)[C@@H]1O` [GITOXIN] was tested, and the GI50 was active: 0.235 µM.
With `CC1=C(C2=C(C)C(=O)c3c(c(C=O)c(O)c(O)c3C(C)C)C2=O)C(=O)c2c(C=O)c(O)c(O)c(C(C)C)c2C1=O` [GOSSYPOLONE] the GI50 was inactive: 2.23 µM.
`Cc1cc2c(C(C)C)c(O)c(O)c(C=O)c2c(O)c1-c1c(C)cc2c(C(C)C)c(O)c(O)c(C=O)c2c1O` [GOSSYPOL] was tested, and the GI50 was inactive: 3.24 µM.
In the case of `COC1=CC(=O)C[C@@H](C)[C@]12Oc1c(Cl)c(OC)cc(OC)c1C2=O` [GRISEOFULVIN], the GI50 is reported as inactive: 47.4 µM.
With `Nc1n[nH]c(N)n1` [GUANAZOLE] the GI50 was inactive: > 10000 µM.
In the case of `Cc1cc(OC(=O)c2c(C)cc(OC(=O)c3c(C)cc(O)cc3O)cc2O)cc(O)c1C(=O)O` [GYROPHORIC ACID], the GI50 is reported as inactive: > 100 µM.
In the case of `C=C(Cl)[C@](Cl)(CBr)CC[C@@H](Br)C(C)(C)Cl` [HALOMON], the GI50 is reported as inactive: 1.49 µM.
